Target: HER3 (human) (UniProt P21860)
Test: PIE-FCCS

## HER3 (a stretch of the chain, chain not printed) (receptor; other documents disagree on this pair)
  median fc (fraction of cross-correlation): 0.1
  stoichiometry N: 2

Source: article doi:10.1101/2024.05.03.592409
